Test results: the supplement of paper PMC3724861
Some of the results follow.

Test system: T1, Caupolican (Caup) homeodomain DNA-binding domain
T1 sequence: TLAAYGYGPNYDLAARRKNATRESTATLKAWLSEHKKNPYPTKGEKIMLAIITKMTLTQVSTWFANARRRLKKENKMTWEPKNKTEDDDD
Experiment: PBM E-score (8-mer, recovered from the published 9-mer minima) (E-score (dimensionless, -0.5 to 0.5)); Drosophila protein; higher = stronger relative binding preference, active = 0.31 or more
Procedure, shortened: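 An enrichment score, with higher meaning stronger, expresses relative binding preference for each short DNA word. The protein used was Caup's homeodomain DNA-binding domain (residues 214-303), produced by in vitro transcription and translation and tested at 100 nM on custom-designed protein binding microarrays. The 8-mer values were recovered from published 9-mer scores, each equal to the lower of its two constituent 8-mer scores.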

PBM E-score, ≥ 0.174:
TACTAGCA

PBM E-score, ≥ 0.265:
ATATATTA

PBM E-score, active:
ACAACATG 0.441

PBM E-score, ≥ 0.00982:
AGTGACCA

PBM E-score, inactive:
ACCCACCG -0.155
CCGCTCCA -0.193
GATAAGCC -0.0964
GAGCCGAA -0.0974
ACTGACAC 0.176
AAGGGAAT -0.0459
ATGCAGGC -0.00763
AAAGAGGC -0.0651
CAAGGCAG -0.0318
AGGCGTGA -0.0652
CCTCAAGG -0.169
TGGCGTAA -0.0043
CGTATCGC -0.00104
CGCACTAA -0.00162
ACGAGGAC 0.0691
CGTAATAA 0.147
TACAGCCA 0.0499
TTCCACAA 0.0524
CTCCTCTC -0.2
GCCCCCAC -0.336
ATCGAAGA 0.0597
CGCATTGC 0.0279
ATGCCGTA 0.022
CTGAACGA 0.0763
CACGCCTG -0.0517
AAGTACCG 0.0956
AGTAAGCG -0.0451
AAGTTCTC -0.0194
CCACCGTC -0.267
TATGCTAA 0.122
AGACAGCC -0.0905
TATACGGA 0.0472
CCCTTTAA -0.0864
GCCTTACA 0.108
CGGATCAC 0.00076
CCATCCGC -0.078
AAGTTTGT 0.173
ACATCGTG 0.219
CTCTCTCA -0.119
CATCTCAC -0.0485
CACACACC 0.123
CTCCGGCC -0.351
AACCGATC 0.0187
GTCACATA 0.173
CGCCGTGC -0.163
GCTCGCGA -0.0573
GATAGGTA 0.124
AATCCTGG -0.0874
ACATTTAG 0.184
TCGATCGA -0.0238
AACTGGCC -0.147
CCAAGATA 0.106
ACGATGTC 0.261
GATATCTA 0.125
CATCGCCA -0.0902
AAACCCTT 0.0757
GAAGGTGC -0.107
GTTCTCTA 0.028
CGCTTAGA -0.12
CATGCCAG -0.0687
ATCATGAG 0.0725
GATACCTA 0.124
ATTTCGCC -0.0602
CGTTTCTA 0.0559
AGCGAACG -0.172
CGGAGCCG -0.275
ACGAATCG 0.0318
CGGTTGCA -0.0742
GATACAGA 0.164
CGGCTGAC -0.0396
CTTCTCGC -0.104
AGCTACAC 0.266
TCCAGTAA -0.0383
AGTGTTTG 0.236
CTTAGGAC 0.0158
CCCACGAA -0.128
GCTACCCC -0.199
CGTACCAC 0.0316
CAGCAGCC -0.127
ACGGTCAC -0.133
CACGCAAC 0.0415
AACACCTA 0.183
CCCATGCC -0.203
ACGCCACG -0.128
ATCCGCCC -0.211
GACACACA 0.258
CCGCCAGA -0.121
CAGAAGGG -0.177
ACACTGTG 0.158
TCCGAACA 0.159
AAAGGGGA -0.201
ACACGCAC 0.213
CGCGCGAC -0.143
TCTTAGCA -0.078
AGTAAGTG 0.00023
GGCGCGAA -0.169
GTGAACAC 0.256
ATGCGGAG -0.09
AGTTCTAT 0.0299
ACGAGTGA 0.0281
CTGTTGGC -0.0498
TCGTTAGA -0.0692
GGCTGGGA -0.226
GTATAAAA 0.116
CATCCCGA 0.0331
GCCTCTCA -0.189
GGTTTCAC 0.0672
GTAACTTA 0.176
TGTTAGAA 0.242
ACACCTAT 0.145
AACCTCTC -0.106
AGACGTAC 0.0508
CCCAGGCA -0.162
CCGTGAGG -0.208
CGATACTC -0.0512
ACCGCCAT -0.0994
CTTCGCCA -0.113
AAGCCCAC -0.142
CAATCATC 0.024
GCGAGACA 0.0367
AGTTCTGG -0.0428
ACCATGCA 0.0966
CAATCATG 0.179
GATTCGCA -0.0575
CCTAAGGC -0.234
GACCCGAA -0.123
GATTACCC 0.0655
GATAGGCC -0.139
CAAAATCG 0.00958
ACGTCCCG -0.18
AGACTTGC -0.025
CGGATCCC -0.2
AGCATTTA 0.00903
ACGCGTCC -0.12
CTGGCAGC -0.225

PBM E-score, ≥ -0.0889:
AACGGCCG

PBM E-score, ≥ 0.0955:
AAGGATTG

PBM E-score, ≥ 0.0604:
CGATCCAC

PBM E-score, ≥ 0.0463:
ATTCCACC

PBM E-score, ≥ 0.0476:
AGCGTTAT
